Test results taken from a compilation of properties of binary mixtures (doi:10.1007/s10953-007-9186-6).
Some of these densities may be calculated back from excess volumes.

Experiment: xn = mol fraction of the nth substance listed
Conditions: 101 kPa

CCCC[n+]1ccn(C)c1.F[B-](F)(F)F + COC(=O)OC
mass density [kg/m3]
Conditions | 293.15 K | 298.15 K | 303.15 K | 308.15 K | 313.15 K | 318.15 K | 323.15 K
x2 = 0 | 1205 | – | 1197.9 | 1194.3 | 1190.8 | 1187.3 | 1183.8
x2 = 0.1152 | 1200.1 | 1196.4 | 1192.8 | – | 1185.4 | – | 1178.2
x2 = 0.1845 | 1196.6 | – | 1189.1 | – | 1181.6 | 1177.9 | 1174.2
x2 = 0.2832 | 1191.7 | 1187.9 | 1184 | 1180.2 | – | 1172.5 | 1168.7
x2 = 0.402 | – | – | – | 1171.8 | 1167.8 | 1163.8 | –
x2 = 0.4979 | 1175.9 | 1171.7 | 1167.5 | – | 1159.2 | 1155 | 1150.9
x2 = 0.6015 | – | – | 1156.3 | 1151.9 | 1147.5 | 1143.1 | 1138.7
x2 = 0.6709 | 1156 | 1151.3 | 1146.7 | 1142.1 | 1137.5 | 1132.9 | 1128.3
x2 = 0.7367 | 1145.7 | 1140.8 | 1136 | 1131.1 | 1126.3 | 1121.4 | 1116.6
x2 = 0.7953 | 1134.6 | – | – | 1119.3 | 1114.2 | 1109.1 | 1104
x2 = 0.8451 | 1122.5 | – | 1111.7 | 1106.3 | 1100.9 | 1095.5 | –
x2 = 0.8949 | 1110.7 | 1105 | 1099.4 | 1093.7 | 1088 | 1082.4 | 1076.7

CCCC[n+]1ccn(C)c1.F[B-](F)(F)F + ClCCCCl
x2 = 0
Conditions | mass density [kg/m3]
293.15 K | 1204.9
303.15 K | 1197.8
308.15 K | 1194.2
313.15 K | 1190.7

CO + CCCC[n+]1ccn(C)c1.F[B-](F)(F)F
x1 = 1
Conditions | mass density [kg/m3]
293.15 K | 791.3
323.15 K | 762.6

CCCC[n+]1ccn(C)c1.F[B-](F)(F)F + CO
mass density [kg/m3]
Conditions | 293.15 K | 298.15 K | 303.15 K | 308.15 K | 313.15 K | 318.15 K | 323.15 K
x2 = 0 | 1204.9 | – | – | – | – | – | 1183.7
x2 = 0.0962 | 1196.4 | – | 1189.2 | 1185.6 | 1182 | – | 1174.9
x2 = 0.1577 | 1190.2 | 1186.5 | 1182.9 | 1179.3 | 1175.7 | – | 1168.6
x2 = 0.2153 | 1183.5 | – | 1176.2 | 1172.5 | 1168.9 | 1165.3 | 1161.7
x2 = 0.2658 | – | 1173.3 | 1169.7 | 1166 | – | – | 1155.1
x2 = 0.3271 | 1168.2 | – | 1160.8 | 1157.1 | 1153.4 | 1149.7 | 1146.1
x2 = 0.426 | 1151.8 | – | 1144.3 | – | 1136.8 | – | –
x2 = 0.5483 | 1124.5 | 1120.6 | 1116.8 | 1112.9 | 1109.1 | 1105.3 | 1101.5
x2 = 0.6279 | 1101.5 | 1097.6 | 1093.6 | – | 1085.8 | – | –
x2 = 0.6765 | 1084.2 | 1080.2 | 1076.2 | 1072.2 | 1068.3 | – | –
x2 = 0.7459 | 1053.4 | 1049.4 | 1045.3 | 1041.2 | 1037.2 | – | 1029.1
x2 = 0.8013 | 1022 | – | 1013.7 | 1009.5 | 1005.4 | 1001.2 | 997.1
x2 = 0.8495 | 987.3 | 983 | 978.8 | 974.5 | 970.3 | 966.1 | –
x2 = 0.9012 | – | 935.4 | 931 | – | 922.3 | – | 913.6
x2 = 0.9514 | 877.2 | 872.7 | – | 863.7 | 859.2 | 854.6 | 850.1

COC(=O)OC + CCCC[n+]1ccn(C)c1.F[B-](F)(F)F
x1 = 1
Conditions | mass density [kg/m3]
293.15 K | 1069.9
303.15 K | 1056.7
308.15 K | 1050.1
313.15 K | 1043.4
318.15 K | 1036.7
323.15 K | 1030

ClCCCCl + CCCC[n+]1ccn(C)c1.F[B-](F)(F)F
mass density [kg/m3]
Conditions | 293.15 K | 298.15 K | 303.15 K | 308.15 K | 313.15 K | 318.15 K | 323.15 K
x1 = 0.0972 | 1204.8 | – | 1197.6 | 1193.9 | 1190.3 | 1186.7 | –
x1 = 0.2137 | 1204.7 | – | – | – | 1189.6 | 1185.9 | 1182.2
x1 = 0.3214 | 1204.3 | – | 1196.4 | 1192.5 | – | 1184.8 | 1181
x1 = 0.4045 | 1203.8 | – | – | 1191.7 | 1187.7 | 1183.7 | 1179.7
x1 = 0.4534 | 1203.5 | – | 1195.3 | 1191.2 | 1187.1 | 1183 | 1178.9
x1 = 0.4746 | – | – | – | – | – | 1182.6 | 1178.5
x1 = 0.5374 | 1202.7 | – | 1194.1 | 1189.9 | 1185.6 | 1181.4 | 1177.1
x1 = 0.5958 | 1201.9 | – | – | 1188.7 | 1184.3 | 1179.9 | –
x1 = 0.6472 | 1201.1 | – | 1192 | 1187.4 | 1182.9 | 1178.4 | 1173.9
x1 = 0.7183 | 1199.5 | – | 1189.9 | 1185.2 | 1180.4 | 1175.7 | 1171
x1 = 0.7899 | 1197.4 | – | 1187.3 | 1182.3 | 1177.3 | 1172.3 | 1167.3
x1 = 0.8484 | 1195.1 | – | 1184.5 | – | – | 1168.7 | 1163.4
x1 = 0.8865 | – | – | 1182.3 | 1176.9 | 1171.4 | – | 1160.5
x1 = 0.9464 | 1189.9 | – | 1178.3 | – | – | 1160.9 | 1155
x1 = 1 | 1185.3 | 1179.1 | 1172.9 | – | 1160.4 | 1154.2 | 1147.9
